# According to the supplement of paper PMC8728848:
# The other results are listed elsewhere or left out.
# Assays:
# Test in all cases: glycan array binding signal (z-score within array); higher = stronger binding
# Conditions in all cases: glycan notation: IUPAC condensed, linker removed; mutation: N224Q
# [1] = target: Gal(b1-4)GlcNAc(b1-6)Gal(b1-4)GlcNAc
# How it was run: (§1)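 The binding signal is a Z-score computed within each array and averaged over linkers. Arrays of the same protein sequence at different concentrations or buffers were also averaged together. Data originate from 3228 arrays in the Consortium for Functional Glycomics database, kept only where the protein sequence was available.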
# [2] = target: Gal(b1-4)GlcNAc(b1-6)GalNAc
# How it was run: as §1
# [3] = target: Gal(b1-4)GlcNAc(b1-6)[Gal(b1-3)]GalNAc
# How it was run: as §1
# [4] = target: Gal(b1-4)GlcNAc(b1-6)[Gal(b1-4)GlcNAc(b1-3)]GalNAc
# How it was run: as §1
# Gal(b1-4)GlcNAc6P = target: Gal(b1-4)GlcNAc6P
# How it was run: as §1
# Gal(b1-6)Gal = target: Gal(b1-6)Gal
# How it was run: as §1
# Gal3S(b1-3)GalNAc = target: Gal3S(b1-3)GalNAc
# How it was run: as §1
# Gal3S(b1-3)GlcNAc = target: Gal3S(b1-3)GlcNAc
# How it was run: as §1
# [5] = target: Gal3S(b1-3)[Fuc(a1-4)]GlcNAc
# How it was run: as §1
# Gal3S(b1-4)Glc = target: Gal3S(b1-4)Glc
# How it was run: as §1
# Gal3S(b1-4)Glc6S = target: Gal3S(b1-4)Glc6S
# How it was run: as §1
# Gal3S(b1-4)GlcNAc = target: Gal3S(b1-4)GlcNAc
# How it was run: as §1
# [6] = target: Gal3S(b1-4)[Fuc(a1-3)]Glc6S
# How it was run: as §1
# [7] = target: Gal3S(b1-4)[Fuc(a1-3)]GlcNAc
# How it was run: as §1
# [8] = target: Gal3S(b1-4)[Fuc(a1-3)]GlcNAc6S
# How it was run: as §1
# Gal3S4S(b1-4)GlcNAc = target: Gal3S4S(b1-4)GlcNAc
# How it was run: as §1
# Gal3S6S(b1-4)GlcNAc = target: Gal3S6S(b1-4)GlcNAc
# How it was run: as §1
# Gal3S6S(b1-4)GlcNAc6S = target: Gal3S6S(b1-4)GlcNAc6S
# How it was run: as §1
# Gal4S(b1-4)GlcNAc = target: Gal4S(b1-4)GlcNAc
# How it was run: as §1
# Gal4S6S(b1-4)GlcNAc = target: Gal4S6S(b1-4)GlcNAc
# How it was run: as §1
# Gal6P(b1-4)GlcNAc = target: Gal6P(b1-4)GlcNAc
# How it was run: as §1
# Gal6S(b1-3)GlcNAc = target: Gal6S(b1-3)GlcNAc
# How it was run: as §1
# Gal6S(b1-3)GlcNAc6S = target: Gal6S(b1-3)GlcNAc6S
# How it was run: as §1
binder,measurement,setting,value
AAL (Aleuria aurantia) (protein) MPTEFLYTSKIAAISWAATGGRQQRVYFQDLNGKIREAQRGGDNPWTGGSSQNVIGEAKLFSPLAAVTWKSAQGIQIRVYCVNKDNILSEFVYDGSKWITGQLGSVGVKVGSNSKLAALQWGGSESAPPNIRVYYQKSNGSGSSIHEYVWSGKWTAGASFGSTVPGTGIGATAIGPGRLRIYYQATDNKIREHCWDSNSWYVGGFSASASAGVSIAAISWGSTPQIRVYWQKGREELYEAAYGGSWNTPGQIKDASRPTPSLPDTFIAANSSGNIDISVFFQASGVSLQQWQWISGKGWSIGAVVPTGTPAGW,glycan array binding signal (z-score),[1],-0.317
same,glycan array binding signal (z-score),[2],-0.317
same,glycan array binding signal (z-score),[3],-0.301
same,glycan array binding signal (z-score),[4],-0.316
same,glycan array binding signal (z-score),Gal(b1-4)GlcNAc6P,-0.312
same,glycan array binding signal (z-score),Gal(b1-6)Gal,-0.31
same,glycan array binding signal (z-score),Gal3S(b1-3)GalNAc,-0.332
same,glycan array binding signal (z-score),Gal3S(b1-3)GlcNAc,-0.353
same,glycan array binding signal (z-score),[5],0.764
same,glycan array binding signal (z-score),Gal3S(b1-4)Glc,-0.321
same,glycan array binding signal (z-score),Gal3S(b1-4)Glc6S,-0.32
same,glycan array binding signal (z-score),Gal3S(b1-4)GlcNAc,-0.328
same,glycan array binding signal (z-score),[6],0.201
same,glycan array binding signal (z-score),[7],2.34
same,glycan array binding signal (z-score),[8],-0.326
same,glycan array binding signal (z-score),Gal3S4S(b1-4)GlcNAc,-0.328
same,glycan array binding signal (z-score),Gal3S6S(b1-4)GlcNAc,-0.327
same,glycan array binding signal (z-score),Gal3S6S(b1-4)GlcNAc6S,-0.328
same,glycan array binding signal (z-score),Gal4S(b1-4)GlcNAc,-0.324
same,glycan array binding signal (z-score),Gal4S6S(b1-4)GlcNAc,-0.327
same,glycan array binding signal (z-score),Gal6P(b1-4)GlcNAc,-0.293
same,glycan array binding signal (z-score),Gal6S(b1-3)GlcNAc,-0.328
same,glycan array binding signal (z-score),Gal6S(b1-3)GlcNAc6S,-0.323
